Assay results as given in the supplement of paper PMC11417369.
This is one part of the list.

System: PF3D7_0420300 AP2 domain 1 (GST-tagged)
Experiment: gcPBM binding intensity (ln(normalized median fluorescence intensity)); higher = stronger DNA binding
How it was run: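 Using an Agilent 4 × 180k array, primer-extended double-stranded 36-bp intergenic genomic probes and negative controls were exposed for 1 h to GST-fused P. falciparum DNA-binding domains expressed in E. coli. Binding was carried out in 1× PBS with 1% milk, 0.2 mg/ml BSA, 0.5% salmon testes DNA and 0.03% Triton X-100, and protein was detected with Alexa488 anti-GST antibody and a 488 nm scan. Binding intensity is the highest Masliner-normalised natural-log median intensity across replicate spots of either probe orientation.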

Sequence | gcPBM binding intensity (ln)
GGGCATATAATATAAAGTACAGGACTATAAAAATAT [XGTACX_site4481] | 9.32
ATTGTGCACTTATATGCACACATTTTAGTTTTTTTT [CACACA_site2028] | 9.44
TATCACATATTATGATGTACAAGGATTCTGACTAAT [XGTACX_site1196] | 9.25
TTTATTTATCTGAACACATGCAGACAAATAACATAT [TGCATGCA_site929] | 8.91
ATTATATATAAACACACACACATGCATGCACATATA [CACACA_site4237] | 9.97
CATAAACTTTATAACACACACTTATAAATATAAATA [CACACA_site6646] | 9.6
GTTATAAAATATGGCACACAAAATGTAAGTAAATGA [CACACA_site1458] | 9.57
GATCTTTAAATTTATTGTACATAAATGTATATGTTA [XGTACX_site1107] | 9.3
ATATATTTTGTTATGGTGCGTAAGAAATATATTCTT [GTGCAC_site9825] | 9.22
CATATAAACAATAACACACACCTAGGTACATGGAAA [CACACA_site4615] | 9.89
CTTTTTAATTTATCGACACACGCATGAATAGAAATT [CACACA_site9112] | 9.19
AAAGCAAATAATAAGTGTACGGGTCAATATATGCGT [XGTACX_site1519] | 9.76
GAACAATATATTTGCACACAAAAAATATATATTTAT [CACACA_site3317] | 9.46
GTTTACATCATTCTGGTGCAAAAAAAAAAAAAAATA | 8.83
GGATAAAAAATATGTACACACATATAGATATCTATA [CACACA_site2693] | 9.52
ATACAAGTATTAATTACACACTCAAAAAGAAAAAAC [CACACA_site5287] | 9.74
GAATACTCATTTCTTTGTACATATATATGTGTATTT [XGTACX_site6411] | 9.57
TAGATTTAAAAAAAAAAAAAATTTTTTTTTTTTTTT [TGCATGCA_negctrl_site593] | 8.68
TTCATATGGAATAAAAGTACGTATTAAAACAATTTT [XGTACX_site8742] | 9.17
TTTAATGAAAGAAACACATACGTATCAAAATATATG [TGCATGCA_negctrl_site510] | 9.19
TACGTTGTATATTTTTGTACATATTGAATTACAAAA [XGTACX_site5906] | 9.01
TTTTAATAATTTATAAAAAAAAAAAAAAAATAAATA [TGCATGCA_negctrl_site419] | 8.82

Sequence | gcPBM binding intensity (ln)
GTGTACAAAATATGGTAATAAAGTAGTTACATGAAT [CACACA_negctrl_site1775] | 9.47
CTAAATTGTTAATAGAGTACATTTGTATAATATAAG [XGTACX_site594] | 9.1
TTATGTTGTAAATACACACATACATATACATACACA [CACACA_site733] | 9.51
AATAAAATATAATAATTAATATATATATATATATAA [GTGCAC_negctrl_site457] | 9.04
TATGTGAAATAAGGATGTACAATTTTGATTTCCCCA [XGTACX_site8389] | 9.28
TAATTTCTTAGGTATTGTACAAATATTATATGATAT [XGTACX_site256] | 9.16
ATATATCTATAAAAGGCTTCCCACTTTTTTTGTCAA [TGCATGCA_negctrl_site332] | 9.07
ATAATAAAAAAAATTAGTACATATATAAATATAAAT [XGTACX_site1937] | 9.28
AGTACATTTTTGTGTGTGCACTAATATTATATACTT [GTGCAC_site9568] | 9.68
ATTTATTTTATTTTCACACACAAAAATAAATATCCG [CACACA_site2414] | 9.58
TAAATAATATCTATCACACACGCATAAATACAGATA [CACACA_site5449] | 9.73
ATAAAAAAAAAAAAAAGTACACATATAAAAGTATTG [XGTACX_site8265] | 9.44
TATAATGTATGTAGTGCACACCTCTATAATATATTA [CACACA_site8560] | 9.26
ATTCTACCACGCGATATACACACTTGTAGACATCTT [CACACA_site188] | 9.47
CGCAATTAAAATATGTGTCCTCATTTTATAACATTT [XGTACX_site5340] | 9.21
AAATTTATGTGTGCCTGTACATATCAAAGATTTAAG [XGTACX_site8547] | 9.14
ATATATATATATATATGTACATATACATATGTGCAA [XGTACX_site5604] | 9.14
AAATGAATAAATAGGTCACACACAAATATATATAAA [CACACA_site8764] | 9.91
AATAAATAAAGAAGTACACACATATATATATATATA [CACACA_site4314] | 9.38
TATTTTTAAAATATAAGTAAAAAAATAATATAAACT [TGCATGCA_negctrl_site283] | 9.37
CAGACATATTAAAAGAGTACATATATATATATATAT [XGTACX_site1158] | 9.54
TGTTTATTACTCAGGTGTACTCAATTTTTTTTTTTT [XGTACX_site3470] | 9.45

Sequence | gcPBM binding intensity (ln)
TACACAAATATATACATACACACATATATACGCATA [CACACA_site394] | 9.79
TAATATTGACTATATACACACATATATATATATATA [CACACA_site575] | 9.34
TGTATAATATTTGGTGCACACAAATTAACAACTGTT [CACACA_site9245] | 9.46
AATATTAAAATAAAAAGTACTTATTTATGTATGTTG [XGTACX_site2682] | 9.2
TATTTACAAAAAAAATATAAAAAATATAAAATATAT [CACACA_negctrl_site575] | 9.04
TTTATATAACAACAAAATGGAAATATATATGTATGT [TGCATGCA_negctrl_site98] | 9.53
AAAAAAAAAAAAGAACGTACAAATTAATTTATAGAA [XGTACX_site5584] | 9.28
TCTTCATATAAGAACACATGCAGATTTTTATTATTG [TGCATGCA_site682] | 9.16
GATAAAGTACTTTATACACACAAATATTTATTTATA [CACACA_site7795] | 9.32
TTATGTAAAAAAAAAAAAAAAAAAAAAAAAAAAAAA [CACACA_negctrl_site984] | 8.62
CATATAATATAATTATGTACATATATAATAATATAC [XGTACX_site5278] | 9.31
AAAAAAAAAAAAAAACGTACACATATTATGTTATTT [XGTACX_site5264] | 9.33
TCATAAAAACTAATACGTACTTAAAAATATGAACTT [XGTACX_site2939] | 9.21
AAAAAAAAGTTGTATTGTACAAAAAAAAAAAAAAAA [XGTACX_site8334] | 8.62
GTACAAAAAAAAATAAAATACATATATATATATATA [GTGCAC_negctrl_site364] | 9.03
AAAAAATTCATATATACACACACGCACATATATATA [CACACA_site4226] | 9.84
GAATATATAAGATACACACACAAATTAAATATAAAA [CACACA_site2781] | 10.1
AAAATATTTCATATATGTACTTAAAAAAAAAAAAAA [XGTACX_site5399] | 8.71
TATTATATATATGTTGACATATTTGTACACTCCACT [TGCATGCA_negctrl_site200] | 9.38
CACTTTTCTGGAAAAATTCCCACATTTTTTTATTAA [GTGCAC_negctrl_site322] | 8.98
AAAAAAAAAAAAAACACACACACACGCATAAATATA [CACACA_site6217] | 10.1
TTTGTTAATATAAAAACACACAAAAATAACATAAAA [CACACA_site2619] | 9.55

Sequence | gcPBM binding intensity (ln)
TCATATTGGCTGTTCTGTACTTATAAGTTTTAAAGA [XGTACX_site5593] | 9.33
ATGTAATATTTACAACGTACAAATTATAAACATATT [XGTACX_site603] | 9.39
TATATTAAAAAAGAGGTGCATTCGTAAGAGGTTAAA [GTGCAC_site9720] | 9.41
AATCCCCACTTGTCAAGTACATATATCATGGATGAA [XGTACX_site3486] | 9.09
TATTTATAACAAAGGTTAAATTAAAACTAATCCACA [TGCATGCA_negctrl_site3] | 9.17
GCCAAAATCTAATTTACACACTTATTAAATAATTAC [CACACA_site6251] | 9.35
GACATAGTCATATACTGTACTTTATATTATTGTGTA [XGTACX_site6636] | 9.36
TTTTTTTTCATTGGTTGTACAATATTTATAATTCAC [XGTACX_site7036] | 9.37
TTTTTTTTTTTTTTTTGTACTTATAAAAAATTTTTT [XGTACX_site1249] | 8.18
TACAGATATAAACACACACACATATATATATATATA [CACACA_site4846] | 9.85
ATCTGACAAAAGTGTACACATATATATATATATATA [CACACA_site4814] | 9.22
AAATGGGAAATTTCATGTACTCATTTACCCTTATTA [XGTACX_site4740] | 8.93
CACATAATGAAAAATACACACATGTATATTTATAAA [CACACA_site2736] | 9.34
GTTAATTTTTGTATAGTGCAAAAATATAATAGTATG | 9.16
TGTTGGTATGTGAATGCATGCATATAAGTCTATCTG [TGCATGCA_site780] | 9.19
TTGAAGTATAATAAAGTGCAAAATTATAATGATCTT [GTGCAC_site9639] | 9.31
AAGGGAAAAAAAAAAGCACACATACGTAAATATATA [CACACA_site7960] | 9.48
TATTTCACACAGTATATATATATATATATATATATA [TGCATGCA_negctrl_site118] | 9.21
AAAAGATAAAATTATGCACACATACGAATAATTTTA [CACACA_site8497] | 9.42
TTATAATATAAAAAATGTACATTAAAAAAAAAGATT [XGTACX_site8950] | 9.4
AAGTATCAAAAATAAAGTACATATTTTGTAGGCAGG [XGTACX_site1463] | 9.47
CAAAAAATATATTTTTGTACTTATGTTTTTATTTTG [XGTACX_site5230] | 9.38
